{
  "source": "the BET-seq Pho4 binding data (Le et al. 2018)",
  "note": "This is one part of the list. Values were computed here from the reads of four pooled replicates and scatter widely.",
  "data": [
    {"target": "T1, Pho4 (S. cerevisiae) (UniProt P07270)", "T1 sequence": "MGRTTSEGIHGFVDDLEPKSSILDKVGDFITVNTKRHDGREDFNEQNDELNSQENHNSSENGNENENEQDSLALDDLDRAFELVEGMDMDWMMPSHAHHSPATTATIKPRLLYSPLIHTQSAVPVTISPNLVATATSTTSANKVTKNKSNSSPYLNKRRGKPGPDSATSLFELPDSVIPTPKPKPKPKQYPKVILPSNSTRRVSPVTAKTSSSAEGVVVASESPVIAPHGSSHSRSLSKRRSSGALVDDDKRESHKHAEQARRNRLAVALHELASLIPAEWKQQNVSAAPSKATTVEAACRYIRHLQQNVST", "assay": "relative binding free energy (BET-seq); higher = weaker binding", "conditions": "reference: library average", "units": {"relative binding free energy": "kcal/mol"}, "values": [
      {"sequence": "TCGGTCACGTGTTCGG", "relative binding free energy": -0.08},
      {"sequence": "GGATTCACGTGGATTG", "relative binding free energy": 0.44},
      {"sequence": "TCGAACACGTGGTGGT", "relative binding free energy": 0.01},
      {"sequence": "GGTTTCACGTGATCGA", "relative binding free energy": 0.26},
      {"sequence": "GATTTCACGTGAATTA", "relative binding free energy": 0.47},
      {"sequence": "TAATACACGTGGATTG", "relative binding free energy": -0.02},
      {"sequence": "CTGGGCACGTGTGAAA", "relative binding free energy": -0.01},
      {"sequence": "GTATACACGTGGTGCG", "relative binding free energy": -0.18},
      {"sequence": "TGACGCACGTGTTAGT", "relative binding free energy": -0.02},
      {"sequence": "AGTGACACGTGAGGGG", "relative binding free energy": 0.19},
      {"sequence": "AATTACACGTGACGGT", "relative binding free energy": 0.29},
      {"sequence": "CAGGTCACGTGTTGGA", "relative binding free energy": -0.01},
      {"sequence": "GGTGACACGTGAGGCT", "relative binding free energy": 0.16},
      {"sequence": "TTGATCACGTGAAAGT", "relative binding free energy": 0.38},
      {"sequence": "GTTCTCACGTGTAGGC", "relative binding free energy": 0.26},
      {"sequence": "GTCCGCACGTGTGGTT", "relative binding free energy": 0.15},
      {"sequence": "GTTTTCACGTGATAAT", "relative binding free energy": 0.49},
      {"sequence": "CACAGCACGTGTGGGT", "relative binding free energy": -0.05},
      {"sequence": "GTCTTCACGTGGAATG", "relative binding free energy": 0.35},
      {"sequence": "TGGAGCACGTGTTAGC", "relative binding free energy": -0.04},
      {"sequence": "GTGACCACGTGGGGAG", "relative binding free energy": -0.09},
      {"sequence": "TGTTGCACGTGTACGC", "relative binding free energy": 0.05},
      {"sequence": "CGTTTCACGTGTTTTA", "relative binding free energy": 0.27},
      {"sequence": "GAGGACACGTGTCGTT", "relative binding free energy": 0.23},
      {"sequence": "GTGATCACGTGTGTTC", "relative binding free energy": 0.09},
      {"sequence": "GCCAGCACGTGGGTGT", "relative binding free energy": -0.17},
      {"sequence": "TTCGTCACGTGTTCAT", "relative binding free energy": 0.12},
      {"sequence": "GTCCGCACGTGTTGGA", "relative binding free energy": 0.12},
      {"sequence": "TGTAACACGTGGTATA", "relative binding free energy": -0.16},
      {"sequence": "TAAAGCACGTGGCGTT", "relative binding free energy": 0.01},
      {"sequence": "CTCTTCACGTGGTTTG", "relative binding free energy": 0.09},
      {"sequence": "GGTATCACGTGAGATT", "relative binding free energy": 0.32},
      {"sequence": "TGTTACACGTGGTCTA", "relative binding free energy": -0.12},
      {"sequence": "CTGAACACGTGTGTTT", "relative binding free energy": 0.01},
      {"sequence": "GGGGTCACGTGTCTGC", "relative binding free energy": 0.13},
      {"sequence": "TGAATCACGTGTATTT", "relative binding free energy": 0.27},
      {"sequence": "GTTATCACGTGGAGCT", "relative binding free energy": 0.13},
      {"sequence": "GGGGTCACGTGTGAAT", "relative binding free energy": 0.22},
      {"sequence": "AGAGGCACGTGTGGTG", "relative binding free energy": -0.06},
      {"sequence": "AGGGTCACGTGTTTAA", "relative binding free energy": 0},
      {"sequence": "TGTTGCACGTGCACGG", "relative binding free energy": -0.07},
      {"sequence": "TAGGACACGTGTTTCG", "relative binding free energy": -0.05},
      {"sequence": "GTTGACACGTGAAAGT", "relative binding free energy": 0.27},
      {"sequence": "GGGGGCACGTGAGTTT", "relative binding free energy": 0.24},
      {"sequence": "GGGTGCACGTGCATGC", "relative binding free energy": -0.05},
      {"sequence": "TTGAACACGTGAAGGT", "relative binding free energy": 0.25},
      {"sequence": "TTGGTCACGTGTAGAC", "relative binding free energy": 0.13},
      {"sequence": "ACGTGCACGTGTTGGC", "relative binding free energy": 0.07},
      {"sequence": "TTATGCACGTGGGATT", "relative binding free energy": 0.01},
      {"sequence": "ATAGTCACGTGTTCTA", "relative binding free energy": 0.13},
      {"sequence": "AGATTCACGTGCTGGA", "relative binding free energy": 0.25},
      {"sequence": "GTAAGCACGTGATAGG", "relative binding free energy": 0.04},
      {"sequence": "GGGGGCACGTGGATGA", "relative binding free energy": -0.1},
      {"sequence": "AGTGCCACGTGCGTGT", "relative binding free energy": -0.2},
      {"sequence": "GGAGGCACGTGTGTAG", "relative binding free energy": -0.09},
      {"sequence": "GATTTCACGTGTGTCA", "relative binding free energy": 0.24},
      {"sequence": "AAGCGCACGTGGGATG", "relative binding free energy": -0.22},
      {"sequence": "GTGATCACGTGGATAT", "relative binding free energy": 0.22},
      {"sequence": "TCTATCACGTGGGGTT", "relative binding free energy": -0.02},
      {"sequence": "CGTGCCACGTGGCAGG", "relative binding free energy": -0.14},
      {"sequence": "CTTTGCACGTGTGCTT", "relative binding free energy": 0.03},
      {"sequence": "GCGGTCACGTGATGCT", "relative binding free energy": 0.24},
      {"sequence": "TCACGCACGTGAGGGG", "relative binding free energy": 0.05},
      {"sequence": "GGGGTCACGTGGTAGG", "relative binding free energy": 0.17},
      {"sequence": "GTGGGCACGTGACGCT", "relative binding free energy": 0.09},
      {"sequence": "TTTGACACGTGTAAAG", "relative binding free energy": 0.19},
      {"sequence": "TGACGCACGTGATTGT", "relative binding free energy": 0.02},
      {"sequence": "TATAACACGTGGGAAT", "relative binding free energy": -0.07},
      {"sequence": "AAGGCCACGTGTCGGG", "relative binding free energy": -0.11},
      {"sequence": "GTGAACACGTGCGGCG", "relative binding free energy": 0.02},
      {"sequence": "TTGGGCACGTGGACTA", "relative binding free energy": -0.07},
      {"sequence": "TGTTACACGTGTGAAT", "relative binding free energy": 0.23},
      {"sequence": "AAATGCACGTGTAAAG", "relative binding free energy": 0.09},
      {"sequence": "GGGGCCACGTGAGGCT", "relative binding free energy": -0.01},
      {"sequence": "TGTTTCACGTGGCACT", "relative binding free energy": 0.12},
      {"sequence": "GCTGGCACGTGTGCGT", "relative binding free energy": -0.17},
      {"sequence": "TAATGCACGTGATGAG", "relative binding free energy": 0.08},
      {"sequence": "AAGTTCACGTGACGAG", "relative binding free energy": 0.39},
      {"sequence": "AATGGCACGTGTAGTT", "relative binding free energy": -0.1},
      {"sequence": "AAGGGCACGTGTGGAC", "relative binding free energy": -0.16},
      {"sequence": "GGAGGCACGTGCAGTT", "relative binding free energy": -0.14},
      {"sequence": "GCATGCACGTGGTGGC", "relative binding free energy": 0.02},
      {"sequence": "TCTAGCACGTGTTAGT", "relative binding free energy": -0.05},
      {"sequence": "CAGGGCACGTGGCAGG", "relative binding free energy": -0.19},
      {"sequence": "CTGTTCACGTGACGGT", "relative binding free energy": 0.32},
      {"sequence": "GGGGTCACGTGGAAAA", "relative binding free energy": 0.28},
      {"sequence": "CTGGTCACGTGATTTA", "relative binding free energy": 0.24},
      {"sequence": "TCATGCACGTGTAGGG", "relative binding free energy": -0.09},
      {"sequence": "GGTAGCACGTGGGCTA", "relative binding free energy": -0.22},
      {"sequence": "TGCGTCACGTGAACGG", "relative binding free energy": 0.3},
      {"sequence": "ATAATCACGTGGGAGG", "relative binding free energy": 0.12},
      {"sequence": "GTTATCACGTGAAAGG", "relative binding free energy": 0.31},
      {"sequence": "TCTGTCACGTGTGCTT", "relative binding free energy": 0.1},
      {"sequence": "TGCCGCACGTGTTGTT", "relative binding free energy": -0.17},
      {"sequence": "CGTTGCACGTGCGGAT", "relative binding free energy": 0.06},
      {"sequence": "CATGGCACGTGTGTCG", "relative binding free energy": -0.08},
      {"sequence": "GTATCCACGTGGGGGG", "relative binding free energy": -0.01},
      {"sequence": "CGTGGCACGTGTGAGA", "relative binding free energy": -0.08},
      {"sequence": "AATGTCACGTGGCAGG", "relative binding free energy": -0.11},
      {"sequence": "ATATTCACGTGAGGTC", "relative binding free energy": 0.4},
      {"sequence": "TTTGTCACGTGACGAT", "relative binding free energy": 0.18},
      {"sequence": "TTGGTCACGTGTCTAG", "relative binding free energy": 0.23},
      {"sequence": "GGATCCACGTGGTTGT", "relative binding free energy": -0.08},
      {"sequence": "GTGGGCACGTGGGAGG", "relative binding free energy": -0.09},
      {"sequence": "TTGTCCACGTGGATAG", "relative binding free energy": 0.01},
      {"sequence": "ATCGGCACGTGCGGTG", "relative binding free energy": 0.05},
      {"sequence": "TTAAGCACGTGCATGG", "relative binding free energy": -0.23},
      {"sequence": "GGGGTCACGTGTCAAA", "relative binding free energy": 0.19},
      {"sequence": "TTATTCACGTGTAGGT", "relative binding free energy": 0.42},
      {"sequence": "AGCTACACGTGTGAGT", "relative binding free energy": 0.26},
      {"sequence": "AGTAGCACGTGGGTAG", "relative binding free energy": -0.27},
      {"sequence": "AGATTCACGTGACGTG", "relative binding free energy": 0.31},
      {"sequence": "GTCATCACGTGGGTTT", "relative binding free energy": 0.09},
      {"sequence": "TGTGTCACGTGCAGCT", "relative binding free energy": -0.01},
      {"sequence": "GAGGTCACGTGGATTC", "relative binding free energy": 0.35}
    ]}
  ]
}
